# Laboratory results from the supplement of paper PMC8728848.
# This is one part of the list.
# B1: PX9961T-pdi-555-33-555 (Parabacteroides distasonis) (protein)
# chain: FDEETAFQSPTLVYVNTVASLYNNMFKIMGNDRHVYDLNTFSSDEAMLPCRIGDWEDGGLWQNIFLHRWGTMNDLTKNSWDFLYEQIGKCNQSVDKLQAFAEEQPDVEYFKVYLEEVRAVRAFFYYELLDLFARVPLVTSSTTPMSEVKQSERSVVFNFVRSELEEALPYLSDNRSNQKGEYYGRITKPVAYMILAKLALNAEVYADDNWTDGNRPAGKNIKFTVDGKEMNAWEATIAYVDKLEALGYKLQGNFSENFAVANETSVENIFTVPMDPVAYPDAKDYNLVRTRHYDHATAYGQSGWNGSCATVKAMNVFKFGTADEDPRCKLTYFTGEVTGPDGKTIYTEWDGQKVPLKYEPNAPKVYMDASDGLLVKTAGARMAKYEFDQNAQDGGNLHGNDCVIFRFADALLMKAEAKIRLGQNGDDEVNQVRNRVGAKPLQNVTLDTLLDERMLELAWEGVRRQDLIRFGKFTEATVDRYVGVKHFASSLDYQEDKTGYTTVFSIYADILSLNPNLTQNPGY
# Tests used:
# Experiment in all cases: glycan array binding signal (z-score within array); higher = stronger binding
# Conditions in all cases: glycan notation: IUPAC condensed, linker removed
# [1] = target: Fuc(a1-2)Gal(b1-4)GlcNAc(b1-3)Gal(b1-4)GlcNAc(b1-3)Gal(b1-4)GlcNAc
# In short: (§1)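 The binding signal is a Z-score computed within each array and averaged over linkers. Arrays of the same protein sequence at different concentrations or buffers were also averaged together. Data originate from 3228 arrays in the Consortium for Functional Glycomics database, kept only where the protein sequence was available.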
# [2] = target: Fuc(a1-2)Gal(b1-4)GlcNAc(b1-3)GalNAc
# In short: as §1
# [3] = target: Fuc(a1-2)Gal(b1-4)GlcNAc(b1-3)[Fuc(a1-2)Gal(b1-4)GlcNAc(b1-6)]GalNAc
# In short: as §1
# [4] = target: Fuc(a1-2)Gal(b1-4)GlcNAc(b1-3)[Fuc(a1-3)[Gal(b1-4)]GlcNAc(b1-6)]Gal(b1-4)Glc
# In short: as §1
# [5] = target: Fuc(a1-2)Gal(b1-4)GlcNAc(b1-6)GalNAc
# In short: as §1
# [6] = target: Fuc(a1-2)Gal(b1-4)GlcNAc6S
# In short: as §1
# [7] = target: Fuc(a1-2)Gal(b1-4)[Fuc(a1-3)]GlcNAc
# In short: as §1
# [8] = target: Fuc(a1-2)Gal(b1-4)[Fuc(a1-3)]GlcNAc(b1-2)Man(a1-3)[Fuc(a1-2)Gal(b1-4)[Fuc(a1-3)]GlcNAc(b1-2)Man(a1-6)]Man(b1-4)GlcNAc(b1-4)[Fuc(a1-6)]GlcNAc
# In short: as §1
# [9] = target: Fuc(a1-2)Gal(b1-4)[Fuc(a1-3)]GlcNAc(b1-2)[Fuc(a1-2)Gal(b1-4)[Fuc(a1-3)]GlcNAc(b1-4)]Man(a1-3)[Fuc(a1-2)Gal(b1-4)[Fuc(a1-3)]GlcNAc(b1-2)Man(a1-6)]Man(b1-4)GlcNAc(b1-4)GlcNAc
# In short: as §1
# [10] = target: Fuc(a1-2)Gal(b1-4)[Fuc(a1-3)]GlcNAc(b1-3)Gal(b1-4)[Fuc(a1-3)]GlcNAc
# In short: as §1
# [11] = target: Fuc(a1-2)Gal(b1-4)[Fuc(a1-3)]GlcNAc(b1-3)Gal(b1-4)[Fuc(a1-3)]GlcNAc(b1-3)Gal(b1-4)[Fuc(a1-3)]GlcNAc
# In short: as §1
# [12] = target: Fuc(a1-2)Gal(b1-4)[Fuc(a1-3)]GlcNAc(b1-3)GalNAc
# In short: as §1
# [13] = target: Fuc(a1-2)Gal(b1-4)[Fuc(a1-3)]GlcNAc(b1-3)[Neu5Ac(a2-6)Gal(b1-4)GlcNAc(b1-6)]Gal(b1-4)Glc
# In short: as §1
# [14] = target: Fuc(a1-2)Gal3S(b1-4)GlcNAc
# In short: as §1
# [15] = target: Fuc(a1-2)Gal6S(b1-3)GlcNAc
# In short: as §1
# [16] = target: Fuc(a1-2)Gal6S(b1-3)GlcNAc6S
# In short: as §1
# Fuc(a1-2)Gal6S(b1-4)Glc = target: Fuc(a1-2)Gal6S(b1-4)Glc
# In short: as §1
# [17] = target: Fuc(a1-2)Gal6S(b1-4)Glc6S
# In short: as §1
# Fuc(a1-2)[Gal(a1-3)]Gal = target: Fuc(a1-2)[Gal(a1-3)]Gal
# In short: as §1
# [18] = target: Fuc(a1-2)[Gal(a1-3)]Gal(b1-3)GalNAc
# In short: as §1
# [19] = target: Fuc(a1-2)[Gal(a1-3)]Gal(b1-3)GalNAc(b1-3)Gal(a1-4)Gal(b1-4)Glc
# In short: as §1
# [20] = target: Fuc(a1-2)[Gal(a1-3)]Gal(b1-3)GlcNAc
# In short: as §1
# [21] = target: Fuc(a1-2)[Gal(a1-3)]Gal(b1-3)GlcNAc(b1-2)Man(a1-3)[Fuc(a1-2)[Gal(a1-3)]Gal(b1-3)GlcNAc(b1-2)Man(a1-6)]Man(b1-4)GlcNAc(b1-4)GlcNAc
# In short: as §1
# [22] = target: Fuc(a1-2)[Gal(a1-3)]Gal(b1-3)GlcNAc(b1-2)Man(a1-3)[Fuc(a1-2)[Gal(a1-3)]Gal(b1-3)GlcNAc(b1-2)Man(a1-6)]Man(b1-4)GlcNAc(b1-4)[Fuc(a1-6)]GlcNAc
# In short: as §1
# [23] = target: Fuc(a1-2)[Gal(a1-3)]Gal(b1-3)GlcNAc(b1-3)GalNAc
# In short: as §1
# [24] = target: Fuc(a1-2)[Gal(a1-3)]Gal(b1-3)GlcNAc(b1-6)GalNAc
# In short: as §1
# [25] = target: Fuc(a1-2)[Gal(a1-3)]Gal(b1-4)Glc
# In short: as §1
# [26] = target: Fuc(a1-2)[Gal(a1-3)]Gal(b1-4)GlcNAc
# In short: as §1
# [27] = target: Fuc(a1-2)[Gal(a1-3)]Gal(b1-4)GlcNAc(b1-2)Man
# In short: as §1
# [28] = target: Fuc(a1-2)[Gal(a1-3)]Gal(b1-4)GlcNAc(b1-2)Man(a1-3)[Fuc(a1-2)[Gal(a1-3)]Gal(b1-4)GlcNAc(b1-2)Man(a1-6)]Man(b1-4)GlcNAc(b1-4)GlcNAc
# In short: as §1
# [29] = target: Fuc(a1-2)[Gal(a1-3)]Gal(b1-4)GlcNAc(b1-2)Man(a1-3)[Fuc(a1-2)[Gal(a1-3)]Gal(b1-4)GlcNAc(b1-2)Man(a1-6)]Man(b1-4)GlcNAc(b1-4)[Fuc(a1-6)]GlcNAc
# In short: as §1
# [30] = target: Fuc(a1-2)[Gal(a1-3)]Gal(b1-4)GlcNAc(b1-3)GalNAc
# In short: as §1
# [31] = target: Fuc(a1-2)[Gal(a1-3)]Gal(b1-4)GlcNAc(b1-3)[Fuc(a1-2)[Gal(a1-3)]Gal(b1-4)GlcNAc(b1-6)]GalNAc
# In short: as §1
# [32] = target: Fuc(a1-2)[Gal(a1-3)]Gal(b1-4)GlcNAc(b1-6)GalNAc
# In short: as §1
# [33] = target: Fuc(a1-2)[Gal(a1-3)]Gal(b1-4)[Fuc(a1-3)]Glc
# In short: as §1
# [34] = target: Fuc(a1-2)[Gal(a1-3)]Gal(b1-4)[Fuc(a1-3)]GlcNAc
# In short: as §1
# [35] = target: Fuc(a1-2)[Gal(a1-3)]Gal(b1-4)[Fuc(a1-3)]GlcNAc(b1-3)GalNAc
# In short: as §1
binder,measurement,setting,value
B1,glycan array binding signal (z-score),[1],-0.003
same,glycan array binding signal (z-score),[2],0.576
same,glycan array binding signal (z-score),[3],0.373
same,glycan array binding signal (z-score),[4],-0.528
same,glycan array binding signal (z-score),[5],-0.483
same,glycan array binding signal (z-score),[6],-0.249
same,glycan array binding signal (z-score),[7],-0.586
same,glycan array binding signal (z-score),[8],0.323
same,glycan array binding signal (z-score),[9],-0.234
same,glycan array binding signal (z-score),[10],-0.749
same,glycan array binding signal (z-score),[11],-0.168
same,glycan array binding signal (z-score),[12],-0.359
same,glycan array binding signal (z-score),[13],0.591
same,glycan array binding signal (z-score),[14],-0.354
same,glycan array binding signal (z-score),[15],0.027
same,glycan array binding signal (z-score),[16],0.583
same,glycan array binding signal (z-score),Fuc(a1-2)Gal6S(b1-4)Glc,-0.589
same,glycan array binding signal (z-score),[17],-0.413
same,glycan array binding signal (z-score),Fuc(a1-2)[Gal(a1-3)]Gal,0.047
same,glycan array binding signal (z-score),[18],-0.357
same,glycan array binding signal (z-score),[19],-0.628
same,glycan array binding signal (z-score),[20],0.058
same,glycan array binding signal (z-score),[21],0.711
same,glycan array binding signal (z-score),[22],-0.167
same,glycan array binding signal (z-score),[23],-0.258
same,glycan array binding signal (z-score),[24],-0.506
same,glycan array binding signal (z-score),[25],0.982
same,glycan array binding signal (z-score),[26],0.568
same,glycan array binding signal (z-score),[27],0.332
same,glycan array binding signal (z-score),[28],-0.448
same,glycan array binding signal (z-score),[29],0.254
same,glycan array binding signal (z-score),[30],-0.696
same,glycan array binding signal (z-score),[31],0.214
same,glycan array binding signal (z-score),[32],0.678
same,glycan array binding signal (z-score),[33],0.475
same,glycan array binding signal (z-score),[34],0.225
same,glycan array binding signal (z-score),[35],-0.153
